Results reported in patent CN117866904A (BEILAI PHARMACEUTICAL CO LTD, dated 2024).

Target: T1, IL-17A重组蛋白(抗原), IL-17 antigen with a C-terminal 6×His tag, expressed in E. coli BL21 (human, UniProt Q16552 24-155, limits assumed)
T1 sequence: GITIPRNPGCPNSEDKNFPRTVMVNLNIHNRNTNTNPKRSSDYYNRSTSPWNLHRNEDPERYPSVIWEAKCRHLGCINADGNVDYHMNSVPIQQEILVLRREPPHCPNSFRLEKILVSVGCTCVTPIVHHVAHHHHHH
Assay: cell-based or functional assay

B1: 串联抗体G4-H10 (IL-17A特异性串联抗体, 2-G4-(GGGGS)3-3-H10-hinge-human IgG1 Fc) (Fc fusion)
chain: QVQLVESGGGLVQPGGSLRLSCAASGEKLDYFAIGWFRQAPGKEREVVSCVTSSGSSTNYLSSVKDRFTISIDNAKNTVYLQMNSLKPEDTAIYYCASTILLCSDYISAFGTWGQGTQVTVASGGGGSGGGGSGGGGSEVQLVESGGGLVQPGGSLRLSCAASGFSIHIYAMGWYRQAPGKQRELVATITRGGVTNNADSVKGRFTISRDNAKNTAYLQMNSLKPEDTAVYYCNAGGTNGGYWGQGTQVTVSS[in this place human IgG1 Fc]
For B1, the “IC50, 阻断Human IL-17A蛋白激活293F-IL-17RA-IL-17Rc-ACT1-NFκB-Luc报告基因细胞株” value was 589 pM.
